Experimental data reported in publication PMC4336329 (PLoS ONE, 2015).
About 2,200 (0.71%) of roughly 310,000 compounds showed an effect of 50% or more. Effects have a minus sign here. The list shows a part of the results.

What follows are molecules tested against human ether-à-go-go-related gene (hERG) potassium channel (human, UniProt Q12809) (assay: primary screen, population patch clamp on CHO cells stably expressing hERG).
Sequence of human ether-à-go-go-related gene (hERG) potassium channel (Q12809 whole entry, looked up): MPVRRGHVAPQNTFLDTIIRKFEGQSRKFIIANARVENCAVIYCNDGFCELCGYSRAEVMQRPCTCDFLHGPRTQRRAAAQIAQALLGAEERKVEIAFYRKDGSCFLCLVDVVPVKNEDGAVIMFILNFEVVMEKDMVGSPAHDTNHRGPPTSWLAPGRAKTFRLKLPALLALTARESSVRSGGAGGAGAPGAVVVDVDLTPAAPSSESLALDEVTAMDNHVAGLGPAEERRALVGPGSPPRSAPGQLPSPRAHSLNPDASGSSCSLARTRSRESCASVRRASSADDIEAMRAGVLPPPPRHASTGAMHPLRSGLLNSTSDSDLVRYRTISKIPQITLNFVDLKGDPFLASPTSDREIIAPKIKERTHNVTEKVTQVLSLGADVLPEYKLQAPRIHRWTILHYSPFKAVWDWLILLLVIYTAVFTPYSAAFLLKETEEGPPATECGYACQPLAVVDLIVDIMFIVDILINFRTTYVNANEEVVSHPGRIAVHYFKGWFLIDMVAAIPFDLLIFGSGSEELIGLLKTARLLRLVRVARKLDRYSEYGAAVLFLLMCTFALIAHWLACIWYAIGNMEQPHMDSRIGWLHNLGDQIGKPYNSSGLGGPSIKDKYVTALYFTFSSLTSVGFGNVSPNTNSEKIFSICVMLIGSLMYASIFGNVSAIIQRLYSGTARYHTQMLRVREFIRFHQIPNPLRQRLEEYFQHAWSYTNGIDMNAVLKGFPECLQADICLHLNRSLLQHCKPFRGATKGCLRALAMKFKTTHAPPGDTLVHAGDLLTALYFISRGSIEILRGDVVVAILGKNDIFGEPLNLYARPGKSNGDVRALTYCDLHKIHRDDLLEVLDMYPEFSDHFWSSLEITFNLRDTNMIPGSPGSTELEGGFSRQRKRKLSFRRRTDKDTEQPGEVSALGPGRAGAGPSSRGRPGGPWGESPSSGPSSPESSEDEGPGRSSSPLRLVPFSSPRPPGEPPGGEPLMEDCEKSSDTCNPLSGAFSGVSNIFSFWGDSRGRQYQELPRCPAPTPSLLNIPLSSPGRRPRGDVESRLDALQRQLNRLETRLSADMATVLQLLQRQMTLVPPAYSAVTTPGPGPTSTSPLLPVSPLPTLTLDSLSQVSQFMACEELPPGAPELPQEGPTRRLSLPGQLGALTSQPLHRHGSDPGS

Compound | hERG current change (%, negative = inhibition) at 1uM [%]
Cc1csc2ncc(C(=O)Nc3cccc(C(F)(F)F)c3)c(=O)n12 | 3.37
O=C(Cn1cc(C(F)(F)F)ccc1=O)N/N=C/c1ccc(F)cc1 | 8.87
Cc1ccc(NC(=S)NCCc2cnc[nH]2)cc1C | 9.41
CC(=O)O[C@H]1CC[C@@]2(C)[C@@H](CC[C@@H]3[C@@H]2CC[C@]2(C)[C@@H](C(C)(C)O)C[C@@H]32)C1 | 8.13
Cc1ccc(S(=O)(=O)NNC(=O)c2snnc2C)cc1 | 5.74
CSc1nc([O-])cc(=O)n1-c1ccc(F)cc1.[K+] | 7.49
CCCNc1c(NS(=O)(=O)c2ccc(C)c(C)c2)c(=O)oc2ccccc12 | -6.38
CC(C)CCN1CCN(C/C=C/c2ccco2)CC1CCO (centres unmarked) | -10.5
CCOC(=O)C1=C(C)N(Cc2ccccc2)C(=O)NC1c1ccccc1OS(=O)(=O)c1ccccc1[N+](=O)[O-] (centres unmarked) | 7.99
COC(=O)c1c(NC(NC(=O)CC(C)C)C(Cl)(Cl)Cl)sc2c1CCC2 (centres unmarked) | 2.49
CC(C)Nc1ncnc2c1cnn2Cc1ccccc1Cl | 17.2
CCOC(=O)c1sc2c(c1C)c(=O)n(CCO)c(=O)n2Cc1ccccc1 | 5.75
CC1(C)Cc2c(sc3c2c(=N)n(Cc2ccco2)c(=O)n3Cc2ccc(Cl)cc2)CO1 | 3.85
COc1ccc(NC(=S)NC(=O)/C=C/c2ccco2)c(OC)c1 | 4.88
COc1ccc(CNC(=O)COC(=O)CNC(=O)c2sc3ccccc3c2Cl)cc1OC | 14.7
CN(C(=O)CSc1n[nH]c(-c2cccs2)n1)C1CCS(=O)(=O)C1 (centres unmarked) | 11.6
Cc1cc2c(=O)oc(-c3ccc(Br)cc3)nc2s1 | 12.8
O=C(CSc1nnc(SCc2ccc(Cl)cc2)s1)N/N=C/c1ccc(Cl)cc1Cl | 9.38
O=C(/C=C/c1ccco1)Nc1ccccc1C(=O)Nc1cccc(C(=O)O)c1 | 15.9
CC(=O)C(C)Oc1ccc2c3c(c(=O)oc2c1)CCCCC3 (centres unmarked) | 5.08
O=C(NC1CCCC1)C1(c2ccccc2)CCN(S(=O)(=O)c2ccccc2)CC1 | 1.27
COc1ccc(-n2nnnc2SCC(=O)N2CCCC2=O)cc1 | 6.98
COc1cccc(OCC(O)CN2C(C)CCCC2C)c1.Cl (centres unmarked) | 7.18

Compound | hERG current change (%, negative = inhibition) at 1uM [%]
CCC(C)[C@H](NC(=O)N1CC(=O)Nc2ccccc21)C(=O)N1CCC[C@H]1C(=O)O (some centres unmarked) | 3.03
O=c1[nH]c2cc3c(cc2cc1CN(Cc1ccco1)C(=S)NCC1CCCO1)OCCO3 (centres unmarked) | 15.1
COc1ccc(Cn2nc(C)n(N(C)c3ncc(C(F)(F)F)cc3Cl)c2=O)cc1 | 10
O=C(Nc1ccccn1)c1cccc(S(=O)(=O)N2CCOCC2)c1 | 5.85
COC(=O)C(NC(=O)c1ccccc1)=C1C=C(C)OC(C)=C1 | 17.4
COc1ccc(C(=O)NC2CCSc3ccccc32)cc1 (centres unmarked) | 11.2
O=C(NC(=S)Nc1ccc(S(=O)(=O)N2CCCC2)cc1)c1cccs1 | -9.08
CCN(CC)C(=S)SCC(=O)Nc1ncc2c(n1)CC(C)(C)CC2=O | 8.32
Cc1ccc(-n2nc3c(c2NC(=O)c2ccco2)CS(=O)(=O)C3)cc1 | -0.668
COc1ccc(N=Cc2cccc(C)c2O)cc1Cl | 10.4
Cc1cc(/C=C2\C(=N)N3N=C(C(C)C)SC3=NC2=O)c(C)n1-c1ccccc1 | 23.1
CCC(C)n1c(SCC(=O)NC(=O)Nc2ccc3c(c2)OCCO3)nc2ccccc2c1=O (centres unmarked) | 13
CCCCc1ccc(S(=O)(=O)NCCCN2CCCC2=O)cc1 | 12
Cc1ccc2c(c1)N(C(=O)CCC(=O)NCCCN1CCOCC1)CC(C)O2 (centres unmarked) | -1.87
COc1cc(S(=O)(=O)NCc2ccc3c(c2)OCO3)ccc1Cl | 5.03
Cc1sc2ncnc(N3CCN(S(=O)(=O)c4ccccc4)CC3)c2c1C | -3.29
CCC(=O)n1nc(-c2ccc(OC)cc2)nc1SC | 19.7
Cc1c(C(=O)N2CCN(c3ccccn3)CC2)sc2ncnc(N3CCOCC3)c12 | -24.2
CSc1nsc(SCC(=O)Nc2ccc(F)cc2)n1 | 8.96
Cc1cc(/C=C2/C(=N)N3C(=NC2=O)SN=C3S(C)(=O)=O)c(C)n1-c1ccccc1 | 9.17
CC(=O)NCCc1ccc(S(=O)(=O)N2CCCC2)cc1 | -3.83
C=CCNc1nc2ccccc2nc1NS(=O)(=O)c1ccc(F)cc1 | 7.86
COc1cc(C(=O)NNC(=O)c2ccccc2Br)ccc1OCC(=O)N1CCOCC1 | 22.2

Compound | hERG current change (%, negative = inhibition) at 1uM [%]
COc1cccc(-c2cc(C(=O)N/N=C/c3cccc(OC)c3OC)c3ccccc3n2)c1 | 11
Cc1cc(C(=O)NC2CCCCC2)on1 | 10.2
Brc1cccc(CNc2nc3ccccc3n2CCN2CCOCC2)c1 | -56.7
COc1ccc(CNC(=O)CCCCCNc2nc(=S)[nH]c3ccccc23)cc1 | 15.8
Cc1ccccc1NC(=O)N1CCN(C/C=C/c2ccccc2)CC1 | 11
CCc1nc2ccccc2c(C(=O)OCC(=O)NCCCN2CCCC2=O)c1C | 14
O=C(CSc1nnc(-c2ccccc2F)n1C1CC1)Nc1ccc2[nH]c(=O)[nH]c2c1 | 13
COc1ccc(C(=O)COC(=O)CSCc2c(C)noc2C)cc1OC | 16.2
Nc1ccc2nc(-c3ccc(N)c(Cl)c3)[nH]c2c1 | 6.55
Cc1cccc2cc(CN(CCN(C)C)C(=S)NCc3ccco3)c(=O)[nH]c12 | 4.45
O=C(NCCc1ccccc1)c1ccccc1NC(=O)C1CCCO1 (centres unmarked) | 20.1
Cc1ccc(/C=C2\SC(=S)N(CCC(=O)NNS(=O)(=O)c3ccc(C)cc3)C2=O)cc1 | 23.7
COc1cc(C(=S)N2CCOCC2)ccc1OS(=O)(=O)c1ccc(Cl)cc1 | 6.75
CC(C)CCNc1nc(N2CCCC2)c2c(c1C#N)CCN(C)C2 | 0.441
COc1ccc(CN2C(=O)CC(=O)NC2=O)cc1 | 10.8
NNC(=O)c1nnn(-c2nonc2N)c1-c1cccs1 | -10.6
COc1ccc(OC)c(CCNC(=O)CN2C(=O)CC(C)(C)S(=O)(=O)c3ccccc32)c1 | 10.7
O=C(Nc1cccc2ncccc12)c1ccc([N+](=O)[O-])o1 | 10.6
CCN(CC)S(=O)(=O)c1ccc(NC(=O)COC(=O)c2ccc(-n3nc(C)cc3C)cc2)cc1 | -6.12
Cc1ccc(S(=O)(=O)N2CCCCC2)cc1NC(=O)C1CC(=O)N(c2ccc3c(c2)OCCO3)C1 (centres unmarked) | 3.16
CC(=O)NC1(C(F)(F)F)NC(=O)N(CC(C)C)C1=O (centres unmarked) | 0.652
CC1(CCc2ccccc2)NC(=O)N(CC(=O)Nc2ccc3c(c2)OCCO3)C1=O (centres unmarked) | 6.33
CCOc1cc(CNc2nn[nH]n2)ccc1OCC(=O)NC(C)(C)C | 12

Compound | hERG current change (%, negative = inhibition) at 1uM [%]
COc1ccccc1CNC(=O)CNC(=O)N1CC(=O)Nc2ccccc21 | 10.6
COc1cccc(-n2c(COc3ccc(C)cc3)nnc2SCC(=O)O)c1 | 6.98
COc1ccc(C(=O)Oc2c(OC)cc(C(=S)N3CCOCC3)cc2OC)cc1OC | 15.8
c1ccc2c(c1)NC1(CCCC1)n1c-2nc2ccccc21 | 9.03
COCCn1c(C)cc(C(=O)CSc2nc(C)c(C)c(C)n2)c1C | 9.29
CS(=O)(=O)N(Cc1ccc(Cl)cc1)c1ccc(C(=O)N2CCN(c3ccccc3)CC2)cc1 | 3.27
Clc1ncn(C23CC4CC(CC(C4)C2)C3)n1 | 9.07
O=C(O)CCC(=O)Nc1nc(-c2ccccc2)cs1 | 12.8
O=c1cc(-c2ccccc2)nc2nc(-c3ccco3)[nH]n12 | 7.53
Cc1cc(NCCO)nc(N2CCOCC2)n1 | 15.6
CCCc1cc(-c2n[nH]c(=S)n2CC(C)C)cs1 | 14.4
Br.CC1CN(CC(=O)c2ccccc2Cl)CC(C)O1 (centres unmarked) | 9.69
CN(c1ccccc1)S(=O)(=O)c1cccc(NC(=O)COC(=O)C2CCCCC2)c1 | 6.17
COc1ccc(/C=N/NC(=O)CN(Cc2ccccc2)S(=O)(=O)c2ccc3c(c2)OCCO3)cc1 | 10.5
Cc1cccc(C)c1NC(=O)CS(=O)CC(=O)NC1CCCc2ccccc21 (centres unmarked) | 7.5
Cc1[nH]c2ccccc2c1C(=O)CSc1nnc(C2CC2)o1 | 15.5
COCCNC(=S)NNC(=O)c1cc(-c2cccnc2)nc2ccccc12 | 18.7
C=CCOc1ccccc1CNCCCN1CCOCC1.Cl | 37
Cc1cc(C)c(NC(=O)C2C3/C=C\CCCCC32)c(C)c1 (centres unmarked) | 7.77
O=C(NC1CCC(O)CC1)C1CCN(S(=O)(=O)c2c(Cl)cccc2Cl)CC1 (centres unmarked) | 0.544
